This note sets out measurements from PubChem BioAssay (NCI).

Each structure is given as a SMILES string.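 How tested: cells in 96-well plates exposed to compound for 48 hours at five concentrations. GI50: concentration for 50% inhibition of growth. TGI: concentration producing complete growth inhibition.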 Some results are limits rather than exact numbers.

The subject of the assay is NCI-H322M lung. Briefly: inhibition of tumour cell growth, NCI panel, 48 h.
In the case of `Cc1cc(Cl)cc(NS(=O)(=O)c2ccc(-c3cnc(C4CC4)o3)cc2)c1`, the GI50 is 0.71 µM and the TGI worked out at 23.7 µM.

As to `CN(C)c1ccc(-c2cc(-c3c[nH]c4ccccc34)nc(N)c2C#N)cc1`, the GI50 was 3.3 µM and the TGI came out at 17.1 µM.

In the case of `O=C1NC(=C(Cl)Cl)/C(=N/S(=O)(=O)N2CCCCC2CC2(C(F)(F)F)N=N2)N1` (stereo not drawn), the GI50 is 2.91 µM and the TGI came to 11.2 µM.

`COc1ccc(-c2cc(-c3cccc4ccccc34)n3c(n2)nc2ccccc23)cc1OC`: the GI50 was 7.36 µM and the TGI was greater than 100 µM.
